Source: the supplement of paper PMC3334620
In all, about 33,000 sequences were measured (“E-score (-0.5 to 0.5)”: median about -0.053, highest 2% from about 0.37 on). The list shows a part of the results.

Molecular target: Hap1 (UniProt P0CE41)
Assay: PBM E-score (8-mer binding enrichment) (E-score (-0.5 to 0.5)); higher = stronger / more preferred TF binding; most listed sequences are background and not binding sites
Settings: protein concentration: 200 nM; construct: GST-DNA-binding domain
Experimental: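 Universal 'all 10-mer' protein binding microarrays (Agilent AMADID 015681) probed with GST-tagged S. cerevisiae TFs (full-length or DBD) made by in vitro transcription/translation (PURExpress), about 100-200 nM. Bound TF was detected with fluorescent anti-GST. Each ungapped 8-mer (which stands for itself and its reverse complement) is scored by the PBM enrichment score (E-score), a modified Wilcoxon-Mann-Whitney statistic from -0.5 to +0.5, computed with the Universal PBM Analysis Suite. Scale: above 0.35 generally sequence-specific binding.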

Sequence of UniProt P0CE41 (P0CE41 whole entry): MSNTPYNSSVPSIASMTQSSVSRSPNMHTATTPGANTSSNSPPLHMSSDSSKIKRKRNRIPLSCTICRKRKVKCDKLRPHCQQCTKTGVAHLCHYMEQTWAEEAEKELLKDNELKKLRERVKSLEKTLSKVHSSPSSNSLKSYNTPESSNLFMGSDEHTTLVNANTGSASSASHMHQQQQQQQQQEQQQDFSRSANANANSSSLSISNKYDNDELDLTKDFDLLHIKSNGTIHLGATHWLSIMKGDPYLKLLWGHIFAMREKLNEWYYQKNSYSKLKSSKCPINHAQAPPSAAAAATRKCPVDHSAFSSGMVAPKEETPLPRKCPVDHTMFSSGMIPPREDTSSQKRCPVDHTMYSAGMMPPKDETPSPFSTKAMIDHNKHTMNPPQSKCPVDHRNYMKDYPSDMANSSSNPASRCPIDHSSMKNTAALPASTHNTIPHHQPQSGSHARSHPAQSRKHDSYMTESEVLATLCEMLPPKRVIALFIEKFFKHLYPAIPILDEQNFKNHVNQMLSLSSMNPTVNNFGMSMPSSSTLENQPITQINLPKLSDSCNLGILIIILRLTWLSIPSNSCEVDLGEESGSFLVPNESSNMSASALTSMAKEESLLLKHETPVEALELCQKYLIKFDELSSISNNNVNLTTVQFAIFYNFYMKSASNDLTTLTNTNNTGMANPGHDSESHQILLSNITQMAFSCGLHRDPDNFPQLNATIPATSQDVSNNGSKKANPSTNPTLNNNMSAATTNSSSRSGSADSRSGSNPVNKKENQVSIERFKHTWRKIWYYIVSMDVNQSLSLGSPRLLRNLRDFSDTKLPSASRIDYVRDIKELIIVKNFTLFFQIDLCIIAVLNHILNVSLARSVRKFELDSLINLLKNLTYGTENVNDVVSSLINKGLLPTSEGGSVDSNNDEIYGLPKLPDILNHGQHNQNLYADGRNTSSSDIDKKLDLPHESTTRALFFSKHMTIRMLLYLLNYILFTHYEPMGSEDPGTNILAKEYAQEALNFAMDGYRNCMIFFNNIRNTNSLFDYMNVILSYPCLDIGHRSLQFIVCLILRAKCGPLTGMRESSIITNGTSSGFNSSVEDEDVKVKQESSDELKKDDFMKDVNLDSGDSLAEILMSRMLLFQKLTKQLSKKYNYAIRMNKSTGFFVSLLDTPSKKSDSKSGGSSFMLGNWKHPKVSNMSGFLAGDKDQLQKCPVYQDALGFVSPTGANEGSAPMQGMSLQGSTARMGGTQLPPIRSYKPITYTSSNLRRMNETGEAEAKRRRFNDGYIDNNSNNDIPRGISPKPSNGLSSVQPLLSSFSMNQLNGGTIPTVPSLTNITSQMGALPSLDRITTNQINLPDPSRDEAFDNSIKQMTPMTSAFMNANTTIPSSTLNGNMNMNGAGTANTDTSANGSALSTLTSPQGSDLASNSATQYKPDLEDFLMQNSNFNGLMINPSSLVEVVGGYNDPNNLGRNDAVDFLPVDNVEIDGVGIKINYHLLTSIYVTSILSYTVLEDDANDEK

Row | Sequence | PBM E-score
1 | AAGAACAC | -0.00923
2 | ACCGAACT | 0.152
3 | CTGGTTTC | 0.0946
4 | AGCACAAC | 0.152
5 | ATACTTTG | -0.172
6 | GGTCGTGA | -0.18
7 | GAGAACCC | -0.0871
8 | TCAATGGA | -0.0909
9 | CTCTTATA | 0.0711
10 | AGATGCAG | -0.31
11 | AATTATCT | 0.0828
12 | CAGTGCAC | -0.0115
13 | ACCTGACC | -0.148
14 | AAAAACAC | -0.112
15 | GACCCCAC | 0.025
16 | AGTGTGCA | -0.0705
17 | CAAGACGA | -0.145
18 | CTGGCGGC | 0.085
19 | ACGTTGAT | -0.104
20 | GTAGCGTA | -0.0513
21 | ATTCGATG | -0.0371
22 | ATCGCTCA | -0.0431
23 | CATAGGTA | -0.0284
24 | ATTTGAGC | -0.118
25 | ACAGCCCA | -0.164

Row | Sequence | PBM E-score
26 | CCGACCGG | 0.428
27 | CGATGCAA | 0.0923
28 | ATGACATA | -0.204
29 | CCCCTAGA | -0.311
30 | AGAAATCA | -0.067
31 | CCACACAC | 0.0633
32 | AACGCGCG | 0.13
33 | CTCCGGAC | 0.454
34 | ACCGAGGC | 0.189
35 | GACGGTCA | -0.0752
36 | GGTCTCGA | 0.0148
37 | ATGGAAAT | 0.0825
38 | GGGATACA | 0.0801
39 | GGCAGCGA | 0.0265
40 | AAGCACCG | 0.141
41 | ATAGGGAT | -0.102
42 | CACTGGAC | -0.0282
43 | GCGCCTGA | 0.0487
44 | GCGAGGAC | -0.155
45 | CGACGGAA | 0.265
46 | GTCACAAC | -0.0294
47 | AGTTCATA | -0.0246
48 | CTTGCTTC | -0.128
49 | CCTCGGCA | 0.294
50 | ACAACAAA | -0.145

Row | Sequence | PBM E-score
51 | CTCTGGAA | -0.193
52 | ACTACTTA | -0.127
53 | TCCCGGGA | 0.392
54 | GGCCAGAA | -0.0857
55 | CGCTTCGA | 0.00404
56 | CAGACGAA | 0.0649
57 | AAACCGCG | 0.235
58 | CGAGCAAA | 0.087
59 | CCGAGATA | 0.32
60 | CATGCTTC | -0.0171
61 | CGCGGTCC | 0.316
62 | AAATGAAC | -0.259
63 | GTCATTAA | 0.00718
64 | GACAGATA | -0.0328
65 | CAGCTACG | -0.239
66 | GCCACGTA | -0.213
67 | CTATCTGC | 0.0127
68 | GGGAAATA | 0.13
69 | CCCGCAGC | 0.129
70 | CAACGGCA | 0.0809
71 | GGCAGTTA | -0.0681
72 | GATCGCAA | -0.0357
73 | AGTGATGG | -0.186
74 | CACCTGGG | -0.296
75 | AGCCACGA | -0.155

Row | Sequence | PBM E-score
76 | TAGAAAAA | -0.115
77 | AACTATGA | -0.161
78 | GAACGTCC | 0.0447
79 | CCATCGAC | -0.00514
80 | ATGGTAAC | -0.0519
81 | AGGATAAC | -0.244
82 | ATCGATAC | 0.0912
83 | ACTTAGTG | -0.123
84 | AGGCCATA | 0.0268
85 | CTACGCAA | -0.155
86 | CCTAGCAG | -0.26
87 | GTTGGTTA | -0.0552
88 | AGTCTTAT | -0.177
89 | AGTTTACG | 0.0034
90 | AGTGCAAC | -0.0166
91 | AAACGCAA | -0.027
92 | GTGCTCGA | -0.0478
93 | GTGTGGTA | -0.174
94 | CGCAATAC | 0.0613
95 | GAGCATCC | 0.0949
96 | CGACTCCA | -0.23
97 | GGTCGATA | 0.0664
98 | GAGATGAC | -0.0675
99 | CCCCATCG | 0.172
100 | CGGACATA | 0.489

Row | Sequence | PBM E-score
101 | ATACGGCC | 0.197
102 | GCCAAATA | 0.0541
103 | GCCGATCC | 0.258
104 | GTGGTGCA | 0.0173
105 | CCATCTGC | 0.111
106 | AACCAGAC | -0.325
107 | CCGTAGGC | 0.109
108 | GACAGCCC | -0.0225
109 | ACATGCAC | -0.0891
110 | GGATAGTA | 0.107
111 | CTGATTAC | -0.00333
112 | GTCACCGA | 0.142
113 | TATTAGCA | -0.0543
114 | ACCGCCCG | 0.36
115 | CCCAGTTA | -0.0732
116 | CACATGTA | -0.19
117 | AGTCTCAT | -0.129
118 | CTGTATTA | -0.0381
119 | CGTTGGTA | 0.117
120 | CCCAGTGA | -0.248
121 | GACTTTGA | -0.195
122 | ATAATATC | 0.113
123 | AAGTCGGG | 0.153
124 | CTCGACAC | -0.138
125 | CTATTGGA | -0.0708

Row | Sequence | PBM E-score
126 | CTAGGGAA | -0.196
127 | CGCAACAC | 0.103
128 | GCGCAACC | 0.0597
129 | CACGGTAA | 0.131
130 | CATTACGG | 0.108
131 | GGTCTAGA | -0.208
132 | GCGCATAC | 0.071
133 | CTCCCCAA | -0.0995
134 | AATTATTA | 0.0259
135 | CTCCTCAA | -0.0916
136 | CGCTAGCC | -0.0182
137 | GTTCCCAA | -0.115
138 | CCGATATA | 0.44
139 | CCTTTTCG | 0.0546
140 | ACGTCTAA | -0.182
141 | ATCTAAAG | 0.0067
142 | CTTAGGCC | -0.0166
143 | AGTTGCCG | 0.108
144 | CCGTTCAG | 0.109
145 | GGATACTA | 0.188
146 | GAACGTTA | 0.0621
147 | ACACAGGC | -0.279
148 | AAGAGTGG | -0.0856
149 | GATCCCCC | 0.0685
150 | GGAACCAA | 0.0624

Row | Sequence | PBM E-score
151 | CCGTCCAG | -0.0467
152 | TAACGCAA | 0.0452
153 | CCGCGTAG | -0.0382
154 | GCTAAGCC | 0.0914
155 | GTGCCATA | -0.271
156 | GATGATGC | -0.179
157 | CCCCCGGC | 0.317
158 | ATATGGAG | 0.0718
159 | GATCCCGA | 0.256
160 | GTCCATCA | -0.0623
161 | GTAAGGCA | -0.201
162 | AGGTCCCG | 0.202
163 | CACGGCTG | 0.0481
164 | GTACCGAA | 0.0413
165 | GGGATCGA | -0.062
166 | ACGAATTC | -0.132
167 | CGCACCAA | 0.0721
168 | ACCGTACC | 0.0852
169 | CAGCCCCC | -0.289
170 | CTGGGAGA | -0.127
171 | AGCTGGGG | -0.257
172 | GGCTGAGA | 0.083
